The experiment relates to primary human hepatic stellate cells (donor 1). Nature of the experiment: scaled lipid accumulation score (0 = DMSO-like, 1 = nortriptyline-like); higher = stronger HSC inactivation (lipid re-accumulation), active = hit call of the paper. The settings on record: 48 h.
The mark [1] stands for this setting: library stock concentration: 400 uM.
Setting [2] is: library stock concentration: 2 mM.
Where [3] appears, read: library stock concentration: 10 mM.
Setting [4] is: library stock concentration: 80 uM.
Where [5] appears, read: library stock concentration: 1 mM.
Setting [6] is: library stock concentration: 3.33 mM.

Several values for one entry are separate records, joined by “and”; a condition that tells them apart may be missing. Identical values can stand only once. Counter-ions that a name gives are not always drawn. The whole screen tested about 5,800 compounds, of which about 620 (11%) showed activity.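 How the source made its calls: active = score above a cut-off or among the top three wells of a plate; in these data no inactive exceeds 0.85.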 The list shows a part of the results, in another mix than the full data.

As for `Cc1nc(N)ncc1-c1nc(N2CCOCC2)c2sc(C(C)(C)O)cc2n1`, the “scaled lipid accumulation score” value under setting [1] was inactive: 0.092, the “scaled lipid accumulation score” value under setting [2] is inactive: ≤ -0.005 and the “scaled lipid accumulation score” value under setting [3] is inactive: ≤ -0.005.
On to `Cc1nc(-c2cn3c(n2)-c2ccc(-c4cnn(C(C)(C)C(N)=O)c4)cc2OCC3)n(C(C)C)n1` [Taselisib], for which the “scaled lipid accumulation score” value under setting [4] was inactive: ≤ -0.001, the “scaled lipid accumulation score” value under setting [1] was inactive: ≤ -0.001, the “scaled lipid accumulation score” value under setting [2] is inactive: 0.003 and the “scaled lipid accumulation score” value under setting [3] was inactive: ≤ -0.001.
Take `CCCCC[C@H](O)/C=C/[C@H]1CC[C@H](O)[C@@H]1C/C=C\CCCC(=O)O` [11-deoxy Prostaglandin F2.alpha.]: the “scaled lipid accumulation score” value under setting [5] is inactive: ≤ 0.
For `Nc1nc(NCCc2ccc(O)cc2)nc2nc(-c3ccco3)nn12`, the “scaled lipid accumulation score” value under setting [3] was inactive: ≤ -0.006.
`C=CCN1CCc2c(cc(O)c(O)c2Br)[C@@H](c2ccccc2)C1` [R(+)-6-Bromo-APB hydrobromide]: the “scaled lipid accumulation score” value under setting [3] is inactive: 0.262.
On to `C[C@@H]1C[C@H]2[C@@H]3C[C@H](F)C4=CC(=O)C(Cl)=C[C@]4(C)[C@@]3(F)[C@@H](O)C[C@]2(C)[C@@]1(O)C(=O)CO`, for which the “scaled lipid accumulation score” value under setting [3] is inactive: ≤ 0.
For the compound `CCCC/C=C/C=C/C=C\CCCCCCCC(=O)O` [9(Z),11(E),13(E)-Octadecatrienoic Acid], under setting [5], the “scaled lipid accumulation score” value was inactive: ≤ 0.
On the same count and under the same terms, under `CCCCCCCCCCCCCCCC(=O)OC[C@@H](O)COP(=O)(O)O` [1-Palmitoyl Lysophosphatidic Acid (sodium salt)] stands inactive: 0.001.
On to `CCn1ccnc1CC1COc2ccccc2O1` (stereo unspecified) [Imiloxan hydrochloride], for which the “scaled lipid accumulation score” value under setting [3] was inactive: 0.162 and inactive: ≤ 0.
`COc1ccc(S(=O)(=O)N(C(C)=O)c2ccccc2/C=C/c2cc[n+]([O-])cc2)cc1`: the “scaled lipid accumulation score” value reads like this: under setting [4], inactive: ≤ -0.016; under setting [1], inactive: ≤ -0.016; under setting [2], inactive: ≤ -0.016; under setting [6], inactive: ≤ 0; under setting [3], inactive: ≤ 0 and inactive: 0.15.
For the compound `Cc1c(F)cc(C(=O)NC2CC2)cc1-c1ccc(C(=O)NCC(C)(C)C)cn1`, the “scaled lipid accumulation score” value reads like this: under setting [6], inactive: ≤ -0.009; under setting [3], inactive: 0.107.
`Cc1c(F)cc(C(=O)NC2CC2)cc1-c1ccc(C(=O)NCC(C)(C)C)cn1` [Losmapimod]: the “scaled lipid accumulation score” value is inactive: ≤ 0 under setting [4], inactive: 0.016 under setting [1], inactive: ≤ 0 under setting [2] and inactive: ≤ 0 under setting [3].
On to `C[C@H](C(=O)O)c1ccc(-c2ccccc2)c(F)c1` [(S)-Flurbiprofen], for which, under setting [5], the “scaled lipid accumulation score” value is inactive: 0.003.
As to `CC[C@H]1OC(=O)[C@H](C)[C@@H](O[C@H]2C[C@@](C)(OC)[C@@H](O)[C@H](C)O2)[C@H](C)[C@@H](O[C@@H]2O[C@H](C)C[C@H](N(C)C)[C@H]2O)[C@](C)(O)C[C@@H](C)[C@@H]2N[C@@H](COCCOC)O[C@H]([C@H]2C)[C@]1(C)O` [Dirithromycin], the “scaled lipid accumulation score” value is inactive: ≤ 0. The “scaled lipid accumulation score” value under setting [6] is inactive: ≤ 0. The “scaled lipid accumulation score” value under setting [3] was inactive: ≤ -0.001 and inactive: 0.267.
`O=C1CC2(CCCC2)CC(=O)N1CCCCN1CCN(c2ncccn2)CC1` [Buspirone hydrochloride]: the “scaled lipid accumulation score” value was inactive: ≤ 0 (library stock concentration: 4.7 mM); inactive: 0.089 and inactive: 0.028 under setting [3].
Turning to `O=C1CC2(CCCC2)CC(=O)N1CCCCN1CCN(c2ncccn2)CC1` [Buspirone HCl], the “scaled lipid accumulation score” value is inactive: ≤ 0 under setting [6], inactive: 0.036 (library stock concentration: 5.2 mM) and inactive: 0.058 under setting [3].
As for `O=C1CC2(CCCC2)CC(=O)N1CCCCN1CCN(c2ncccn2)CC1` [Buspar], the “scaled lipid accumulation score” value under setting [3] was inactive: 0.124.
As to `CC(C)c1cc(-c2ccc(F)c3ccccc23)nc(N)n1`, the “scaled lipid accumulation score” value is, setting by setting: under setting [6], inactive: 0.006; under setting [3], inactive: ≤ 0.
On to `O=C(NOC[C@H](O)CO)c1ccc(F)c(F)c1Nc1ccc(I)cc1F`, for which the “scaled lipid accumulation score” value under setting [4] is inactive: ≤ -0.009; the “scaled lipid accumulation score” value under setting [1] was inactive: 0.009 and inactive: ≤ -0.005; the “scaled lipid accumulation score” value under setting [2] was inactive: ≤ -0.009 and inactive: ≤ -0.005; the “scaled lipid accumulation score” value under setting [6] was inactive: ≤ 0; the “scaled lipid accumulation score” value under setting [3] was inactive: ≤ 0 and inactive: 0.067 and inactive: 0.059.
In the case of `Cc1cc(C)c(/C=C2\C(=O)Nc3ccccc32)[nH]1` [VEGF Receptor 2 Kinase Inhibitor III], the “scaled lipid accumulation score” value under setting [6] is inactive: ≤ 0.
On to `Cc1cc(C)c(/C=C2\C(=O)Nc3ccccc32)[nH]1`, for which the “scaled lipid accumulation score” value by setting is: under setting [5], inactive: ≤ 0; under setting [3], inactive: ≤ 0 and inactive: 0.011.
Consider `Cc1cc(C)c(/C=C2\C(=O)Nc3ccccc32)[nH]1` [Semaxanib (SU5416)], for which the “scaled lipid accumulation score” value was inactive: ≤ 0 under setting [6] and inactive: 0.145 under setting [3].
Take `CCn1nc(C(=O)O)c(=O)c2cc3c(cc21)OCO3` [Cinoxacin]: the “scaled lipid accumulation score” value is inactive: 0.021. Where the note is “library stock concentration: 7.6 mM”, the “scaled lipid accumulation score” value was inactive: ≤ -0.001. For the same compound, the “scaled lipid accumulation score” value under setting [3] is inactive: ≤ 0 and inactive: 0.088.
As for `Cc1cc(/C=C/c2ccc3cc(N(C)C)ccc3[n+]2C)c(C)n1-c1ccccc1` [Pyrvinium pamoate], the “scaled lipid accumulation score” value is inactive: ≤ 0. The “scaled lipid accumulation score” value (library stock concentration: 2.6 mM) is inactive: 0.485. Besides, the “scaled lipid accumulation score” value under setting [3] is inactive: 0.763.
`CCCCN1CCC(CCC(=O)c2cc(Cl)c(N)cc2OC)CC1`: under setting [3], the “scaled lipid accumulation score” value is inactive: 0.511.
On to `O=c1c(-c2ccc(O)cc2)coc2c([C@@H]3O[C@H](CO)[C@@H](O)[C@H](O)[C@H]3O)c(O)ccc12` [Puerarin], for which the “scaled lipid accumulation score” value under setting [6] was inactive: ≤ 0 and the “scaled lipid accumulation score” value under setting [3] is inactive: ≤ 0.
As for `COCCOC(=O)C1=C(C)NC(C)=C(C(=O)OC/C=C/c2ccccc2)C1c1cccc([N+](=O)[O-])c1` (stereo unspecified) [Cilnidipine], the “scaled lipid accumulation score” value was inactive: ≤ 0 under setting [6]; inactive: ≤ 0 and inactive: ≤ -0.07 and inactive: ≤ -0.001 under setting [3].
Regarding `O=C1c2ccccc2C(Cc2ccnc(F)c2)(Cc2ccnc(F)c2)c2ccccc21`, the “scaled lipid accumulation score” value under setting [3] was inactive: ≤ -0.001.
`CCCCNc1ccc(C(=O)OCCOCCOCCOCCOCCOCCOCCOCCOCCOC)cc1` [Benzonatate]: the “scaled lipid accumulation score” value was inactive: 0.073.
On to `Cc1cc([C@@H](C)Nc2ccccc2C(=O)O)c2nc(N3CCOCC3)cc(=O)n2c1`, for which the “scaled lipid accumulation score” value was inactive: ≤ 0 under setting [4]; inactive: ≤ 0 under setting [1]; inactive: 0.003 under setting [2]; inactive: 0.02 under setting [6]; inactive: 0.074 and inactive: ≤ 0 under setting [3].
In the case of `O=C(O)/C=C/c1ccc(Cn2ccnc2)cc1` [Ozagrel HCl], the “scaled lipid accumulation score” value is, setting by setting: under setting [6], inactive: ≤ 0; under setting [3], inactive: ≤ 0.
With `O=C(O)/C=C/c1ccc(Cn2ccnc2)cc1` [Ozagrel], the “scaled lipid accumulation score” value runs as follows: under setting [5], inactive: ≤ 0; under setting [6], inactive: ≤ 0; (library stock concentration: 8.8 mM) inactive: ≤ -0.006; under setting [3], inactive: ≤ 0.
For the compound `O=C(O)/C=C/c1ccc(Cn2ccnc2)cc1` [Ozagrel hydrochloride], the “scaled lipid accumulation score” value was inactive: ≤ 0. Besides, under setting [3], the “scaled lipid accumulation score” value is inactive: 0.011.
For `O=C(O)/C=C/c1ccc(Cn2ccnc2)cc1`, the “scaled lipid accumulation score” value under setting [3] is inactive: ≤ 0.
As to `COc1cc2nccc(Oc3ccc(NC(=O)C4(C(=O)Nc5ccc(F)cc5)CC4)cc3)c2cc1OC`, the “scaled lipid accumulation score” value reads like this: under setting [4], inactive: 0.011; under setting [1], inactive: ≤ -0.016; under setting [2], inactive: 0.189; under setting [6], inactive: 0.757; under setting [3], inactive: 0.459 and inactive: 0.491.
As for `COc1cc2nccc(Oc3ccc(NC(=O)C4(C(=O)Nc5ccc(F)cc5)CC4)cc3)c2cc1OC` [Cabozantinib malate (XL184)], the “scaled lipid accumulation score” value under setting [6] is inactive: 0.354 and the “scaled lipid accumulation score” value under setting [3] was inactive: 0.677.
With `CNC(=O)c1cc(COc2nnc(Nc3ccc(Cl)cc3)c3ccoc23)ccn1` [Telatinib], the “scaled lipid accumulation score” value runs as follows: under setting [6], inactive: 0.276; under setting [3], inactive: 0.248.
With `Oc1ccc(OCc2ccccc2)cc1` [Monobenzone], the “scaled lipid accumulation score” value was inactive: ≤ 0. Also, under setting [6], the “scaled lipid accumulation score” value was inactive: ≤ 0. Moreover, the “scaled lipid accumulation score” value under setting [3] is inactive: ≤ 0.
For `Cc1cc(/C(=C/Nc2ccc(Cl)cc2)C(=O)Nc2ccc(Cl)cc2)on1`, under setting [3], the “scaled lipid accumulation score” value was inactive: 0.332.
Same read-out and setting: under `CCCn1c(=O)c2c(ncn2C)n(CCC)c1=O` [1,3-Dipropyl-7-methylxanthine] stands inactive: ≤ -0.07.
With `CC(C)COCC(CN(Cc1ccccc1)c1ccccc1)N1CCCC1.Cl` (stereo unspecified), the “scaled lipid accumulation score” value (library stock concentration: 12.4 mM) was active: 0.96.
Regarding `C[C@H]1C[C@H]2[C@@H]3CCC4=CC(=O)C=C[C@]4(C)[C@@]3(F)[C@@H](O)C[C@]2(C)[C@@]1(O)C(=O)CO` [Betamethasone], the “scaled lipid accumulation score” value is inactive: 0.042. Further, the “scaled lipid accumulation score” value under setting [6] is inactive: ≤ 0. The “scaled lipid accumulation score” value (library stock concentration: 4 mM) was inactive: ≤ 0. Besides, under setting [3], the “scaled lipid accumulation score” value is inactive: ≤ 0.
Regarding `CCCCCC=CCC=CCC=CCC=CCCCC(=O)OCC(O)CO` (stereo unspecified) [1-Arachidonoyl Glycerol], the “scaled lipid accumulation score” value under setting [5] was inactive: 0.012.
Take `C=C1/C(=C\C=C2/CCC[C@]3(C)[C@@H]([C@H](C)/C=C/[C@@H](O)C4CC4)CC[C@@H]23)C[C@@H](O)C[C@@H]1O` [Calcipotriol]: under setting [3], the “scaled lipid accumulation score” value is inactive: 0.022.
Take `C=C1/C(=C\C=C2/CCC[C@]3(C)[C@@H]([C@H](C)/C=C/[C@@H](O)C4CC4)CC[C@@H]23)C[C@@H](O)C[C@@H]1O` [Calcipotriene]: where the note is “library stock concentration: 4.8 mM”, the “scaled lipid accumulation score” value is inactive: ≤ -0.006.
Take `Cc1ccc(Cl)c(Nc2ccccc2C(=O)O)c1Cl` [Meclomen]: under setting [3], the “scaled lipid accumulation score” value is inactive: ≤ 0.
As to `Cc1ccc(Cl)c(Nc2ccccc2C(=O)O)c1Cl` [Meclofenamic acid sodium], under setting [3], the “scaled lipid accumulation score” value is inactive: 0.133.
With `Cc1ccc(Cl)c(Nc2ccccc2C(=O)O)c1Cl` [Meclofenamate (sodium salt)], the “scaled lipid accumulation score” value under setting [5] is inactive: 0.041.
For the compound `Cc1ccc(Cl)c(Nc2ccccc2C(=O)O)c1Cl` [Meclofenamate Sodium], the “scaled lipid accumulation score” value is, setting by setting: under setting [6], inactive: ≤ 0; under setting [3], inactive: ≤ -0.001.
Turning to `Cc1ccc(Cl)c(Nc2ccccc2C(=O)O)c1Cl` [Meclofenamic acid sodium salt monohydrate], the “scaled lipid accumulation score” value is inactive: ≤ 0.
For `Cc1ccc(Cl)c(Nc2ccccc2C(=O)O)c1Cl` [Meclofenamate sodium], the “scaled lipid accumulation score” value (library stock concentration: 6.3 mM) is inactive: 0.011.
For the compound `O=C(NCCO[N+](=O)[O-])c1cccnc1` [Nicorandil], the “scaled lipid accumulation score” value was inactive: ≤ 0. Under setting [6], the “scaled lipid accumulation score” value is inactive: ≤ 0. Moreover, the “scaled lipid accumulation score” value (library stock concentration: 9.5 mM) is inactive: ≤ -0.006. The “scaled lipid accumulation score” value under setting [3] was inactive: ≤ 0 and inactive: 0.022.
Regarding `O=C(NCCO[N+](=O)[O-])c1cccnc1`, under setting [3], the “scaled lipid accumulation score” value is inactive: ≤ 0.
Turning to `CN(C)CCOc1ccc(/C(=C(/CCCl)c2ccccc2)c2ccccc2)cc1` [Toremifene Citrate], the “scaled lipid accumulation score” value under setting [6] is inactive: 0.112.
`CN(C)CCOc1ccc(/C(=C(/CCCl)c2ccccc2)c2ccccc2)cc1` [Toremifene]: the “scaled lipid accumulation score” value (library stock concentration: 4.9 mM) was inactive: 0.264.
On to `CN(C)CCOc1ccc(/C(=C(/CCCl)c2ccccc2)c2ccccc2)cc1`, for which the “scaled lipid accumulation score” value under setting [3] was inactive: ≤ 0.

For the origin of these results see the supplement of paper PMC9135407.
